The values below come from patent US20240124543A1 (published 2024).

For the experiment, the target named is TGFβ1 (R&D systems) (UniProt P01137 fragment). The experiment is described as follows: cell-based or functional assay.
Sequence of UniProt P01137 (P01137 279-390 limits assumed): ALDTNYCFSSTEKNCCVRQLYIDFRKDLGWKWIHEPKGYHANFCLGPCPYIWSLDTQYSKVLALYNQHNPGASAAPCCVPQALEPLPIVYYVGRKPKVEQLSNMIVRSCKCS

B1: TGFR/TF/IL-15:CD16scFv/IL-15RαSu/IL-21 protein complex (other)
chain 1: IPPHVQKSVNNDMIVTDNNGAVKFPQLCKFCDVRFSTCDNQKSCMSNCSITSICEKPQEVCVAVWRKNDENITLETVCHDPKLPYHDFILEDAASPKCIMKEKKKPGETFFMCSCSSDECNDNIIFSEEYNTSNPDGGGGSGGGGSGGGGSIPPHVQKSVNNDMIVTDNNGAVKFPQLCKFCDVRFSTCDNQKSCMSNCSITSICEKPQEVCVAVWRKNDENITLETVCHDPKLPYHDFILEDAASPKCIMKEKKKPGETFFMCSCSSDECNDNIIFSEEYNTSNPDSGTTNTVAAYNLTWKSTNFKTILEWEPKPVNQVYTVQISTKSGDWKSKCFYTTDTECDLTDEIVKDVKQTYLARVFSYPAGNVESTGSAGEPLYENSPEFTPYLETNLGQPTIQSFEQVGTKVNVTVEDERTLVRRNNTFLSLRDVFGKDLIYTLYYWKSSSSGKKTAKTNTNEFLIDVDKGENYCFSVQAVIPSRTVNRKSTDSPVECMGQEKGEFRE[about 120 residues not spelt out]
chain 2: not shown
Take B1: the “IC50, inhibition of TGFβ1 activity in HEK-Blue TGFβ cells” value (“IC50, inhibition of TGFβ1 activity” below) amounted to 9.13 nM.

B2: TGFβR/TF/IL-15:TGFβR/IL-15RαSu protein complex (other)
chain 1: IPPHVQKSVNNDMIVTDNNGAVKFPQLCKFCDVRFSTCDNQKSCMSNCSITSICEKPQEVCVAVWRKNDENITLETVCHDPKLPYHDFILEDAASPKCIMKEKKKPGETFFMCSCSSDECNDNIIFSEEYNTSNPDGGGGSGGGGSGGGGSIPPHVQKSVNNDMIVTDNNGAVKFPQLCKFCDVRFSTCDNQKSCMSNCSITSICEKPQEVCVAVWRKNDENITLETVCHDPKLPYHDFILEDAASPKCIMKEKKKPGETFFMCSCSSDECNDNIIFSEEYNTSNPDSGTTNTVAAYNLTWKSTNFKTILEWEPKPVNQVYTVQISTKSGDWKSKCFYTTDTECDLTDEIVKDVKQTYLARVFSYPAGNVESTGSAGEPLYENSPEFTPYLETNLGQPTIQSFEQVGTKVNVTVEDERTLVRRNNTFLSLRDVFGKDLIYTLYYWKSSSSGKKTAKTNTNEFLIDVDKGENYCFSVQAVIPSRTVNRKSTDSPVECMGQEKGEFRE[about 120 residues not spelt out]
chain 2: IPPHVQKSVNNDMIVTDNNGAVKFPQLCKFCDVRFSTCDNQKSCMSNCSITSICEKPQEVCVAVWRKNDENITLETVCHDPKLPYHDFILEDAASPKCIMKEKKKPGETFFMCSCSSDECNDNIIFSEEYNTSNPDGGGGSGGGGSGGGGSIPPHVQKSVNNDMIVTDNNGAVKFPQLCKFCDVRFSTCDNQKSCMSNCSITSICEKPQEVCVAVWRKNDENITLETVCHDPKLPYHDFILEDAASPKCIMKEKKKPGETFFMCSCSSDECNDNIIFSEEYNTSNPDITCPPPMSVEHADIWVKSYSLYSRERYICNSGFKRKAGTSSLTECVLNKATNVAHWTTPSLKCIR
Take B2: the “IC50, inhibition of TGFβ1 activity” value was found to be 0.217 nM.

B3: IL-7/TF/IL-15:TGFβ Receptor II/IL-15RαSu fusion protein complex (other)
chain 1: DCDIEGKDGKQYESVLMVSIDQLLDSMKEIGSNCLNNEFNFFKRHICDANKEGMFLFRAARKLRQFLKMNSTGDFDLHLLKVSEGTTILLNCTGQVKGRKPAALGEAQPTKSLEENKSLKEQKKLNDLCFLKRLLQEIKTCWNKILMGTKEHSGTTNTVAAYNLTWKSTNFKTILEWEPKPVNQVYTVQISTKSGDWKSKCFYTTDTECDLTDEIVKDVKQTYLARVFSYPAGNVESTGSAGEPLYENSPEFTPYLETNLGQPTIQSFEQVGTKVNVTVEDERTLVRRNNTFLSLRDVFGKDLIYTLYYWKSSSSGKKTAKTNTNEFLIDVDKGENYCFSVQAVIPSRTVNRKSTDSPVECMGQEKGEFRE[about 120 residues not spelt out]
chain 2: IPPHVQKSVNNDMIVTDNNGAVKFPQLCKFCDVRFSTCDNQKSCMSNCSITSICEKPQEVCVAVWRKNDENITLETVCHDPKLPYHDFILEDAASPKCIMKEKKKPGETFFMCSCSSDECNDNIIFSEEYNTSNPDGGGGSGGGGSGGGGSIPPHVQKSVNNDMIVTDNNGAVKFPQLCKFCDVRFSTCDNQKSCMSNCSITSICEKPQEVCVAVWRKNDENITLETVCHDPKLPYHDFILEDAASPKCIMKEKKKPGETFFMCSCSSDECNDNIIFSEEYNTSNPDITCPPPMSVEHADIWVKSYSLYSRERYICNSGFKRKAGTSSLTECVLNKATNVAHWTTPSLKCIR
With B3, the “IC50, inhibition of TGFβ1 activity” value was 1.14 nM.
